{
  "source": "PubChem BioAssay AID624417",
  "about": "(National Center for Advancing Translational Sciences (NCATS), 2012)",
  "note": "The campaign covered roughly 410,000 compounds. About 6,400 (1.6%) were called active. Inconclusive results, whose numbers are uncertain, are shown with a selection of clear calls. The call rests on the fitted dose curve; in most records, active means well fitted inhibition curve with a large enough effect; inconclusive means small, poorly fitted or top-dose-only effect; inactive means no such curve, though single readings can be large or run the other way. No potency is given beside an inconclusive call; the fits are too rough.",
  "data": [
    {"target": "Glucagon-like peptide 1 receptor (Homo sapiens) (UniProt P43220)", "sequence (P43220 whole entry, looked up)": "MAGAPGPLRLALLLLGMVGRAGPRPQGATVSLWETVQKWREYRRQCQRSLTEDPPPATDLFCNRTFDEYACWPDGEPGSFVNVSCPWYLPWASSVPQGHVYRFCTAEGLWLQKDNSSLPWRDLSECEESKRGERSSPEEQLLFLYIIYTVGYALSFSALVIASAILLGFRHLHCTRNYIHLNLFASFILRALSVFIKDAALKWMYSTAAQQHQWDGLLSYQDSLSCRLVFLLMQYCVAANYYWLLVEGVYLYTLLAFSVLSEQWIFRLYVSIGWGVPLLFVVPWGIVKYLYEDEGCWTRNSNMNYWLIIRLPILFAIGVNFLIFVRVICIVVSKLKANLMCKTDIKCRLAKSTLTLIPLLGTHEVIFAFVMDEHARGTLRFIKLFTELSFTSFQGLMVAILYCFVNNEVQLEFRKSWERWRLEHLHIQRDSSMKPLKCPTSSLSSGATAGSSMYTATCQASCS", "assay": "qHTS of GLP-1 Receptor Inverse Agonists (Inhibition Mode); further: nearly all actives have a fitted effect of over 55% in size; further: potency means the concentration at half of the fitted maximal effect; tags describe the fitted curve by direction and shape; on activity change, negative = inhibition: on the % scale 0 is the no-effect control and ±100 the full control effect", "details": "HEK293 GLP-1R CRE-luciferase, luminescence, 24 h, GLP-1R form is constitutively active; activity change, negative = inhibition: at 38.3 µM (top of the series) unless noted", "method_in_brief": "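qHTS in 1536-well format: reporter HEK293 cells expressing constitutive GLP-1R activity in DMEM + 10% Nu serum, 24 hr with compounds at 37 deg C, luminescence read after 12 min with detection reagent.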", "values": [
      {"compound": "CCC(C)NC(=O)CCSc1nc(-c2ccc(OC)cc2)cc(C(F)(F)F)n1", "note": "(configuration not stated)", "Potency": "inconclusive [inhibitor, single point]"},
      {"compound": "COc1ccc(-n2nc([N+](=O)[O-])c(=NCCc3ccccc3)n2O)cc1", "Potency": "inconclusive [inhibitor, partial curve, poor fit]"},
      {"compound": "CCOC(=O)[C@]12CCCC=C1N(Cc1ccc(Cl)cc1Cl)C(=O)[C@H](CC(=O)NCc1cccs1)C2", "Potency": "inconclusive [inhibitor, single point]"},
      {"compound": "CC(=O)Nc1ccc(NC(=O)COC(=O)C2CCC(C(C)(C)C)CC2)cc1", "note": "(configuration not stated)", "Potency": "inconclusive [inhibitor, single point]"},
      {"compound": "COc1cccc(-c2ncc3ccccc3c2COC(=O)N2CCCCC2)c1", "Potency": "inconclusive [inhibitor, partial curve, poor fit]"},
      {"compound": "Cc1cc(C)c(-n2c(SCc3nc4ccccc4s3)n[nH]c2=O)c(C)c1", "Potency": "inconclusive [inhibitor, partial curve, poor fit]"},
      {"compound": "O=C(c1ccc(Cl)c(S(=O)(=O)Nc2ccccc2C(=O)N2CCc3ccccc3C2)c1)N1CCc2ccccc2C1", "Potency": "inconclusive [inhibitor, partial curve, poor fit]"},
      {"compound": "CCc1cnc2c(c1SCC(=O)c1ccc(OC)cc1)c(=O)n(C)c(=O)n2C", "activity change, negative = inhibition": "inactive: 10.2%"},
      {"compound": "Cc1cc(C(=O)CSc2nnc(N)s2)c(C)n1CCc1ccc(F)cc1", "Potency": "inconclusive [inhibitor, single point]"},
      {"compound": "CC1CCN(c2nc(-c3ccco3)c3c(c2C#N)CC(C)(C)OC3)CC1", "Potency": "inconclusive [inhibitor, partial curve, poor fit]"},
      {"compound": "COc1ccc(NC(=O)C2Cc3c(-c4cccc(NC(C)=O)c4)ccnc3O2)cn1", "note": "(configuration not stated)", "Potency": "inconclusive [inhibitor, full curve]"},
      {"compound": "COc1ccc(OC)c(/C=C/C(=O)Nc2ccc(C(=O)OCCC(C)C)cc2)c1", "Potency": "inconclusive [inhibitor, partial curve, poor fit]"},
      {"compound": "Cc1ccccc1CN1C(=O)c2ccccc2Sc2ccc(C(=O)NC3CCCC3)cc21", "activity change, negative = inhibition": "inactive: 5.38%"},
      {"compound": "O=C(c1ccc([N+](=O)[O-])cc1)N1CCSC1c1ccccc1Cl", "note": "(configuration not stated)", "Potency": "inconclusive [inhibitor, single point]"},
      {"compound": "CCN(CC(=O)Nc1c(F)cccc1F)C(=O)CCSc1ccc(C)cc1", "Potency": "inconclusive [inhibitor, partial curve]"},
      {"compound": "COc1ccc(S(=O)(=O)N2CCOCC2)cc1NC(=O)CCCOc1ccc(Cl)cc1C", "Potency": "inconclusive [inhibitor, partial curve, poor fit]"},
      {"compound": "Cc1ccc(Cl)cc1-n1ncc2c(N3CCCCCC3)ncnc21", "Potency": "inconclusive [inhibitor, partial curve, poor fit]"},
      {"compound": "CCCCN(CCCC)C(=O)C1CCN(S(=O)(=O)c2cccc3nsnc23)CC1", "activity change, negative = inhibition": "inactive: -30%"},
      {"compound": "CCCc1c(C(=O)NNc2cccc(Cl)c2)cnn1-c1ccccc1", "Potency": "inconclusive [inhibitor, full curve, poor fit]"},
      {"compound": "O=C(NCCc1c[nH]c2ccccc12)C1CCN(S(=O)(=O)c2ccccc2F)CC1", "Potency": "inconclusive [inhibitor, full curve, poor fit]"},
      {"compound": "CC(C)(C)c1cc(NC(=O)COC(=O)c2nccnc2N)n(-c2ccccc2)n1", "activity change, negative = inhibition": "inactive: 10.4%"},
      {"compound": "Cc1c(-c2ccc(Cl)cc2)c(=O)oc2ccc(OC(=O)N3CCOCC3)cc12", "Potency": "inconclusive [inhibitor, partial curve]"},
      {"compound": "CCCCOc1cccc(C(=O)N(Cc2cccs2)c2ccc(OC)cc2)c1", "Potency": "inconclusive [inhibitor, partial curve, poor fit]"},
      {"compound": "COc1cc2[nH]c(=O)n(CCCCCC(=O)NC3CCCC3)c(=O)c2cc1OC", "activity change, negative = inhibition": "inactive: 11%"},
      {"compound": "CCCCn1c(SCC(=O)NCc2ccco2)nc2ccccc2c1=O", "Potency": "inconclusive [inhibitor, single point]"},
      {"compound": "CCc1ccc(S(=O)(=O)N(C(=O)Oc2ccccc2)c2ccc3oc(C)c(C(=O)OC)c3c2)cc1", "activity change, negative = inhibition": "inactive: -24.4%"},
      {"compound": "CCCCNC(=O)C1CCC(CNS(=O)(=O)c2ccc(Cl)cc2)CC1", "note": "(configuration not stated)", "activity change, negative = inhibition": "inactive: -4.02%"},
      {"compound": "CCC(C)(O)c1[nH]c2ccc(C(F)(F)F)cc2c1C", "note": "(configuration not stated)", "Potency": "inconclusive [inhibitor, single point]"},
      {"compound": "CC(Sc1nc(N)c2c3c(sc2n1)CSC(C)(C)C3)C(=O)Nc1ccccc1", "note": "(configuration not stated)", "Potency": "inconclusive [inhibitor, single point]"},
      {"compound": "CC(C)(C)c1ccc(-c2nc(SCC(=O)Nc3ccc(Cl)cc3)[nH]c(=O)c2C#N)cc1", "Potency": "inconclusive [inhibitor, single point]"},
      {"compound": "Cc1nn2c(NCCN(C)C)c3c(nc2c1-c1ccccc1)CCCC3", "Potency": "inconclusive [inhibitor, full curve, poor fit]"},
      {"compound": "COc1nc(-c2ccccc2)ccc1-c1noc(-c2ccco2)n1", "activity change, negative = inhibition": "inactive: -23.2%"},
      {"compound": "Cc1ccc(S(=O)(=O)NCCC2=CCCCC2)cc1C(N)=O", "Potency": "inconclusive [inhibitor, partial curve, poor fit]"},
      {"compound": "CCN(CC)CCNC(=O)Nc1ccc2c(c1)N(Cc1ccccc1)C(=O)c1ccccc1S2", "Potency": "inconclusive [inhibitor, partial curve, poor fit]"},
      {"compound": "CCOC(=O)Cc1csc(NC(=O)NC2(C(F)(F)F)Oc3cc(Cl)c(Cl)cc3O2)n1", "activity change, negative = inhibition": "inactive: -21.6%"},
      {"compound": "Cc1ccc(/C=C/c2ccc(=O)n(Cc3ccc(F)cc3)n2)cc1", "Potency": "inconclusive [inhibitor, single point]"},
      {"compound": "CSc1nc2ccccc2cc1/C=C(\\C#N)c1cccc(C)c1", "Potency": "inconclusive [inhibitor, full curve, poor fit]"},
      {"compound": "CC(=O)OCC(=O)Nc1ccc([N+](=O)[O-])cc1Cl", "activity change, negative = inhibition": "inactive: 13.3%"},
      {"compound": "Cc1ccc(C)c2sc(N3CCN(C(=O)C(C)(C)C)CC3)nc12", "Potency": "inconclusive [inhibitor, partial curve]"},
      {"compound": "CCN(CCCNC(=O)c1cc2c(Cl)nc3ccccc3c2s1)Cc1ccccc1", "Potency": "inconclusive [inhibitor, partial curve, poor fit]"},
      {"compound": "C=CCNC(=O)c1n[nH]c2c1CC(C(C)(C)CC)CC2", "note": "(configuration not stated)", "Potency": "inconclusive [inhibitor, partial curve, poor fit]"},
      {"compound": "O=C(CCN1C(=O)/C(=C\\c2ccccc2Cl)SC1=S)Nc1cccnc1", "activity change, negative = inhibition": "inactive: 14.5%"},
      {"compound": "COc1cc(C(=O)Nc2ccc(C(C)=O)cc2)c(Br)c(OC)c1OC", "activity change, negative = inhibition": "inactive: 23.5%"},
      {"compound": "O=C(NNC(=O)c1ccccc1O)c1cccc(Br)c1", "Potency": "inconclusive [inhibitor, single point]"},
      {"compound": "Cc1ccc(S(=O)(=O)N2CCCC2CNC(=O)C(=O)NC2CCCC2)cc1", "note": "(configuration not stated)", "Potency": "inconclusive [inhibitor, single point]"},
      {"compound": "COc1ccc(-c2noc(Cc3cccs3)n2)cc1", "Potency": "inconclusive [inhibitor, single point]"},
      {"compound": "Cc1ccc(C(=O)NNc2ncnc3c2cnn3C)cc1", "activity change, negative = inhibition": "inactive: 6.11%"},
      {"compound": "CCOC(=O)C1=CN(Cc2cccc(F)c2)S(=O)(=O)N(C)C1c1ccc(C(F)(F)F)cc1", "note": "(configuration not stated)", "Potency": "inconclusive [inhibitor, partial curve, poor fit]"},
      {"compound": "CCN1C(=O)/C(=C/C=C2\\C=CN(CC)c3ccccc32)SC1=S", "activity change, negative = inhibition": "inactive: 12.2%"},
      {"compound": "O=C(NCCC1CCCCN1S(=O)(=O)c1ccccc1)C(=O)NCc1ccco1", "note": "(configuration not stated)", "Potency": "inconclusive [inhibitor, single point]"},
      {"compound": "CCN(CC)c1sc(S(=O)(=O)c2ccccc2)nc1S(=O)(=O)c1ccc(C)cc1", "Potency": "inconclusive [inhibitor, partial curve, poor fit]"},
      {"compound": "CCOc1ccc(CCNC(=O)/C=C/c2ccco2)cc1OCC", "activity change, negative = inhibition": "inactive: 75%"},
      {"compound": "CCc1nnc(NC(=O)c2ccc(NS(=O)(=O)c3ccccc3)cc2)s1", "activity change, negative = inhibition": "inactive: 0%"},
      {"compound": "CC1=C(C(=O)Nc2ccc(C)cc2Cl)C2(CCCCCC2)OC1=O", "Potency": "inconclusive [inhibitor, partial curve, poor fit]"},
      {"compound": "CCC1C=C(c2ccccc2)C=CN=C1N(CC)CC", "note": "(configuration not stated)", "Potency": "inconclusive [inhibitor, single point]"},
      {"compound": "O=C(Nc1cccc(-c2cn3ccccc3n2)c1)c1cc2ccccc2oc1=O", "activity change, negative = inhibition": "inactive: 0%"},
      {"compound": "O=C(OCc1nnc(-c2ccccc2)o1)C12CC3CC(CC(Br)(C3)C1)C2", "Potency": "inconclusive [inhibitor, single point]"},
      {"compound": "O=C(c1sc2ccccc2c1Cl)N1CCN(c2ccc(F)cc2)CC1", "Potency": "inconclusive [inhibitor, single point]"},
      {"compound": "Cc1cc(NC(=O)c2ccoc2C)ccc1Br", "Potency": "inconclusive [inhibitor, single point]"},
      {"compound": "COc1cc(/C=N/Nc2nnc3c(n2)[nH]c2ccccc23)ccc1O", "activity change, negative = inhibition": "inactive: 3.05%"},
      {"compound": "COc1ccc(/C(N)=N/OC(=O)c2cccs2)cc1OC", "activity change, negative = inhibition": "inactive: 136%"},
      {"compound": "COc1ccc(OC)c(NC(=O)C(CC(C)C)NC(=O)C2CCCCC2)c1", "note": "(configuration not stated)", "Potency": "inconclusive [inhibitor, partial curve]"},
      {"compound": "O=C(c1cc2ncccn2n1)N1CCc2c([nH]c3ccccc23)C1c1ccccc1F", "note": "(configuration not stated)", "Potency": "inconclusive [inhibitor, single point]"},
      {"compound": "Cc1cc(SCC(=O)c2ccc3c(c2)OCO3)nc2ccccc12", "activity change, negative = inhibition": "inactive: -6.69%"},
      {"compound": "COc1ccc2c(c1OC)OCC2C", "note": "(configuration not stated)", "Potency": "inconclusive [inhibitor, single point]"},
      {"compound": "COc1ccccc1C(=O)Nc1ccc(OCc2cc(=O)n3ccsc3n2)cc1", "activity change, negative = inhibition": "inactive: -9.44%"},
      {"compound": "Cc1cc2c(ncn2C)c(NS(=O)(=O)c2ccc(Cl)cc2)c1C", "Potency": "inconclusive [inhibitor, single point]"}
    ]}
  ]
}
